Assay results from the supplement of paper PMC10724272.
MIC of invasive clinical C. tropicalis isolates, CLSI broth microdilution (fluconazole 0.12-256 mg/L, up to 1,024 for the azole-resistant cluster and its neighbour group; other ranges not stated); higher = less susceptible. Call: susceptible or wild type [S] / resistant or non-wild type [R] by CLSI breakpoints or cut-offs; intermediate and dose-dependent carry no call. '<=' and '>=' at the end values are inferred; the source marks only some of them. Isolates are numbered anew.

Key:
Assay in all cases: CLSI broth microdilution.
itraconazole = compound: CCC(C)n1ncn(-c2ccc(N3CCN(c4ccc(OCC5COC(Cn6cncn6)(c6ccc(Cl)cc6Cl)O5)cc4)CC3)cc2)c1=O [itraconazole]
micafungin = compound: CCCCCOc1ccc(-c2cc(-c3ccc(C(=O)N[C@H]4C[C@@H](O)[C@@H](O)NC(=O)[C@@H]5[C@@H](O)[C@@H](C)CN5C(=O)[C@H]([C@H](O)CC(N)=O)NC(=O)[C@H]([C@H](O)[C@@H](O)c5ccc(O)c(OS(=O)(=O)O)c5)NC(=O)[C@@H]5C[C@@H](O)CN5C(=O)[C@H]([C@@H](C)O)NC4=O)cc3)no2)cc1 [micafungin]
anidulafungin = compound: CCCCCOc1ccc(-c2ccc(-c3ccc(C(=O)N[C@H]4C[C@@H](O)[C@@H](O)NC(=O)[C@@H]5[C@@H](O)[C@@H](C)CN5C(=O)[C@H]([C@@H](C)O)NC(=O)[C@H]([C@H](O)[C@@H](O)c5ccc(O)cc5)NC(=O)[C@@H]5C[C@@H](O)CN5C(=O)[C@H]([C@@H](C)O)NC4=O)cc3)cc2)cc1 [anidulafungin]
posaconazole = compound: CC[C@@H]([C@H](C)O)n1ncn(-c2ccc(N3CCN(c4ccc(OC[C@@H]5CO[C@@](Cn6cncn6)(c6ccc(F)cc6F)C5)cc4)CC3)cc2)c1=O [posaconazole]
caspofungin = compound: CC[C@H](C)C[C@H](C)CCCCCCCCC(=O)N[C@H]1C[C@@H](O)[C@@H](NCCN)NC(=O)[C@@H]2[C@@H](O)CCN2C(=O)[C@H]([C@H](O)CCN)NC(=O)[C@H]([C@H](O)[C@@H](O)c2ccc(O)cc2)NC(=O)[C@@H]2C[C@@H](O)CN2C(=O)[C@H]([C@@H](C)O)NC1=O [caspofungin]
voriconazole = compound: C[C@@H](c1ncncc1F)[C@](O)(Cn1cncn1)c1ccc(F)cc1F [voriconazole]
amphotericin B = compound: C[C@@H]1[C@H](O)[C@@H](C)/C=C/C=C/C=C/C=C/C=C/C=C/C=C/[C@H](O[C@@H]2O[C@H](C)[C@@H](O)[C@H](N)[C@@H]2O)C[C@@H]2O[C@](O)(C[C@@H](O)C[C@@H](O)[C@H](O)CC[C@@H](O)C[C@@H](O)CC(=O)O[C@H]1C)C[C@H](O)[C@H]2C(=O)O [amphotericin B]
flucytosine = compound: Nc1[nH]c(=O)ncc1F [flucytosine]
fluconazole = compound: OC(Cn1cncn1)(Cn1cncn1)c1ccc(F)cc1F [fluconazole]

| Test System | MIC (itraconazole) | MIC (micafungin) | MIC (anidulafungin) | MIC (posaconazole) | MIC (caspofungin) | MIC (voriconazole) | MIC (amphotericin B) | MIC (flucytosine) | MIC (fluconazole) |
| --- | --- | --- | --- | --- | --- | --- | --- | --- | --- |
| Candida tropicalis isolate 99 (ERG11 copies: 2, Erg11p: no key change) | 0.12 mg/L [S] | 0.015 mg/L [S] | 0.06 mg/L [S] | 0.06 mg/L [S] | 0.5 µg/mL | 0.12 mg/L [S] | 0.25 mg/L [S] | 0.12 mg/L [S] | 0.5 mg/L [S] |
| Candida tropicalis isolate 360 (ERG11 copies: 2, Erg11p: no key change) | 0.25 mg/L [S] | 0.03 mg/L [S] | 0.03 mg/L [S] | 0.25 mg/L [S] | 0.03 mg/L [S] | 0.12 mg/L [S] | 1 mg/L [S] | ≤ 0.06 mg/L [S] | 2 mg/L [S] |
| Candida tropicalis isolate 417 (ERG11 copies: 8, Erg11p: Y132F, S154F, P397S (heterozygous)) | 1 mg/L [R] | 0.03 mg/L [S] | 0.12 mg/L [S] | 2 mg/L [R] | 0.06 mg/L [S] | ≥ 8 mg/L [R] | 2 mg/L [S] | ≤ 0.06 mg/L [S] | 512 mg/L [R] |
| Candida tropicalis isolate 267 (ERG11 copies: 2, Erg11p: no key change) | 0.06 mg/L [S] | 0.03 mg/L [S] | 0.06 mg/L [S] | 0.06 mg/L [S] | 0.03 mg/L [S] | 0.06 mg/L [S] | 0.5 mg/L [S] | ≤ 0.06 mg/L [S] | 1 mg/L [S] |
| Candida tropicalis isolate 389 (ERG11 copies: 2, Erg11p: no key change) | 0.25 mg/L [S] | 0.03 mg/L [S] | 0.12 mg/L [S] | 0.25 mg/L [S] | 0.06 mg/L [S] | 0.12 mg/L [S] | 1 mg/L [S] | ≤ 0.06 mg/L [S] | 2 mg/L [S] |
| Candida tropicalis isolate 125 (ERG11 copies: 7, Erg11p: Y132F, S154F (heterozygous)) | 1 mg/L [R] | 0.06 mg/L [S] | 0.12 mg/L [S] | 1 mg/L [R] | 0.06 mg/L [S] | ≥ 8 mg/L [R] | 1 mg/L [S] | ≤ 0.06 mg/L [S] | 512 mg/L [R] |
| Candida tropicalis isolate 19 (ERG11 copies: 8, Erg11p: Y132F, S154F (homozygous)) | 1 mg/L [R] | 0.06 mg/L [S] | 0.12 mg/L [S] | 1 mg/L [R] | 0.06 mg/L [S] | ≥ 8 mg/L [R] | 1 mg/L [S] | ≤ 0.06 mg/L [S] | 512 mg/L [R] |
| Candida tropicalis isolate 397 (ERG11 copies: 7, Erg11p: Y132F, S154F (heterozygous)) | 1 mg/L [R] | 0.03 mg/L [S] | 0.12 mg/L [S] | 1 mg/L [R] | 0.06 mg/L [S] | ≥ 8 mg/L [R] | 0.5 mg/L [S] | ≤ 0.06 mg/L [S] | 512 mg/L [R] |
| Candida tropicalis isolate 114 (ERG11 copies: 2, Erg11p: no key change) | 0.06 mg/L [S] | 0.015 mg/L [S] | ≤ 0.015 mg/L [S] | 0.12 mg/L [S] | 0.03 mg/L [S] | 0.03 mg/L [S] | 1 mg/L [S] | ≤ 0.06 mg/L [S] | 1 mg/L [S] |
| Candida tropicalis isolate 128 (ERG11 copies: 2, Erg11p: no key change) | 0.06 mg/L [S] | 0.03 mg/L [S] | 0.12 mg/L [S] | 0.03 mg/L [S] | 0.06 mg/L [S] | 0.03 mg/L [S] | 0.25 mg/L [S] | ≤ 0.06 mg/L [S] | 0.5 mg/L [S] |
| Candida tropicalis isolate 194 (ERG11 copies: 8, Erg11p: Y132F, S154F (heterozygous)) | 1 mg/L [R] | 0.03 mg/L [S] | 0.12 mg/L [S] | 1 mg/L [R] | 0.03 mg/L [S] | > 8 mg/L [R] | 0.5 mg/L [S] | ≤ 0.06 mg/L [S] | 512 mg/L [R] |
| Candida tropicalis isolate 94 (ERG11 copies: 2, Erg11p: no key change) | 0.12 mg/L [S] | 0.03 mg/L [S] | 0.12 mg/L [S] | 0.06 mg/L [S] | 0.06 mg/L [S] | 0.06 mg/L [S] | 0.5 mg/L [S] | ≤ 0.06 mg/L [S] | 1 mg/L [S] |
| Candida tropicalis isolate 214 (ERG11 copies: 2, Erg11p: no key change) | 0.12 mg/L [S] | 0.03 mg/L [S] | ≤ 0.015 mg/L [S] | 0.12 mg/L [S] | 0.03 mg/L [S] | 0.06 mg/L [S] | 1 mg/L [S] | ≤ 0.06 mg/L [S] | 2 mg/L [S] |
| Candida tropicalis isolate 82 (ERG11 copies: 2, Erg11p: no key change) | 0.25 mg/L [S] | 0.015 mg/L [S] | ≤ 0.015 mg/L [S] | 0.25 mg/L [S] | 0.03 mg/L [S] | 0.12 mg/L [S] | 0.5 mg/L [S] | ≤ 0.06 mg/L [S] | 2 mg/L [S] |
| Candida tropicalis isolate 396 (ERG11 copies: 2, Erg11p: Y132F, S154F (heterozygous)) | 0.5 mg/L [S] | 0.03 mg/L [S] | 0.25 mg/L [S] | 0.5 mg/L [R] | 0.03 mg/L [S] | 2 mg/L [R] | 0.5 mg/L [S] | 0.12 mg/L [S] | 32 mg/L [R] |
| Candida tropicalis isolate 416 (ERG11 copies: 2, Erg11p: no key change) | 0.12 mg/L [S] | 0.06 mg/L [S] | 0.12 mg/L [S] | 0.25 mg/L [S] | 0.06 mg/L [S] | 0.12 mg/L [S] | 0.5 mg/L [S] | ≤ 0.06 mg/L [S] | 2 mg/L [S] |
| Candida tropicalis isolate 11 (ERG11 copies: 2, Erg11p: no key change) | 0.25 mg/L [S] | 0.06 mg/L [S] | 0.12 mg/L [S] | 0.25 mg/L [S] | 0.06 mg/L [S] | 1 mg/L [R] | 1 mg/L [S] | ≤ 0.06 mg/L [S] | 16 mg/L [R] |
| Candida tropicalis isolate 246 (ERG11 copies: 2, Erg11p: no key change) | 0.25 mg/L [S] | 0.06 mg/L [S] | 0.12 mg/L [S] | 0.5 mg/L [R] | 0.06 mg/L [S] | 0.25 µg/mL | 1 mg/L [S] | 0.25 mg/L [S] | 2 mg/L [S] |
